From PubChem BioAssay AID504333 (National Center for Advancing Translational Sciences (NCATS), 2011)
The whole screen tested about 360,000 compounds, of which about 16,000 (4.4%) were called active. Inconclusive results, whose numbers are uncertain, are shown with a selection of clear calls. The call rests on the fitted dose curve; in most records, active means well fitted inhibition curve with a large enough effect; inconclusive means small, poorly fitted or top-dose-only effect; inactive means no such curve, though single readings can be large or run the other way. Potencies beside an inconclusive call are fits to weak or partial responses and may not hold up.
Further: nearly all actives have a fitted effect of over 60% in size.
Potency means the concentration at half of the fitted maximal effect; tags describe the fitted curve by direction and shape.

What follows are compounds tested against Bromodomain adjacent to zinc finger domain protein 2B (Homo sapiens) (UniProt Q9UIF8) (assay: qHTS Assay for Inhibitors of BAZ2B). Settings: AlphaScreen BAZ2B-H3K14Ac peptide displacement; series mostly up to 114 µM.
UniProt Q9UIF8, sequence (Q9UIF8 whole entry, looked up, the tested form may be a part): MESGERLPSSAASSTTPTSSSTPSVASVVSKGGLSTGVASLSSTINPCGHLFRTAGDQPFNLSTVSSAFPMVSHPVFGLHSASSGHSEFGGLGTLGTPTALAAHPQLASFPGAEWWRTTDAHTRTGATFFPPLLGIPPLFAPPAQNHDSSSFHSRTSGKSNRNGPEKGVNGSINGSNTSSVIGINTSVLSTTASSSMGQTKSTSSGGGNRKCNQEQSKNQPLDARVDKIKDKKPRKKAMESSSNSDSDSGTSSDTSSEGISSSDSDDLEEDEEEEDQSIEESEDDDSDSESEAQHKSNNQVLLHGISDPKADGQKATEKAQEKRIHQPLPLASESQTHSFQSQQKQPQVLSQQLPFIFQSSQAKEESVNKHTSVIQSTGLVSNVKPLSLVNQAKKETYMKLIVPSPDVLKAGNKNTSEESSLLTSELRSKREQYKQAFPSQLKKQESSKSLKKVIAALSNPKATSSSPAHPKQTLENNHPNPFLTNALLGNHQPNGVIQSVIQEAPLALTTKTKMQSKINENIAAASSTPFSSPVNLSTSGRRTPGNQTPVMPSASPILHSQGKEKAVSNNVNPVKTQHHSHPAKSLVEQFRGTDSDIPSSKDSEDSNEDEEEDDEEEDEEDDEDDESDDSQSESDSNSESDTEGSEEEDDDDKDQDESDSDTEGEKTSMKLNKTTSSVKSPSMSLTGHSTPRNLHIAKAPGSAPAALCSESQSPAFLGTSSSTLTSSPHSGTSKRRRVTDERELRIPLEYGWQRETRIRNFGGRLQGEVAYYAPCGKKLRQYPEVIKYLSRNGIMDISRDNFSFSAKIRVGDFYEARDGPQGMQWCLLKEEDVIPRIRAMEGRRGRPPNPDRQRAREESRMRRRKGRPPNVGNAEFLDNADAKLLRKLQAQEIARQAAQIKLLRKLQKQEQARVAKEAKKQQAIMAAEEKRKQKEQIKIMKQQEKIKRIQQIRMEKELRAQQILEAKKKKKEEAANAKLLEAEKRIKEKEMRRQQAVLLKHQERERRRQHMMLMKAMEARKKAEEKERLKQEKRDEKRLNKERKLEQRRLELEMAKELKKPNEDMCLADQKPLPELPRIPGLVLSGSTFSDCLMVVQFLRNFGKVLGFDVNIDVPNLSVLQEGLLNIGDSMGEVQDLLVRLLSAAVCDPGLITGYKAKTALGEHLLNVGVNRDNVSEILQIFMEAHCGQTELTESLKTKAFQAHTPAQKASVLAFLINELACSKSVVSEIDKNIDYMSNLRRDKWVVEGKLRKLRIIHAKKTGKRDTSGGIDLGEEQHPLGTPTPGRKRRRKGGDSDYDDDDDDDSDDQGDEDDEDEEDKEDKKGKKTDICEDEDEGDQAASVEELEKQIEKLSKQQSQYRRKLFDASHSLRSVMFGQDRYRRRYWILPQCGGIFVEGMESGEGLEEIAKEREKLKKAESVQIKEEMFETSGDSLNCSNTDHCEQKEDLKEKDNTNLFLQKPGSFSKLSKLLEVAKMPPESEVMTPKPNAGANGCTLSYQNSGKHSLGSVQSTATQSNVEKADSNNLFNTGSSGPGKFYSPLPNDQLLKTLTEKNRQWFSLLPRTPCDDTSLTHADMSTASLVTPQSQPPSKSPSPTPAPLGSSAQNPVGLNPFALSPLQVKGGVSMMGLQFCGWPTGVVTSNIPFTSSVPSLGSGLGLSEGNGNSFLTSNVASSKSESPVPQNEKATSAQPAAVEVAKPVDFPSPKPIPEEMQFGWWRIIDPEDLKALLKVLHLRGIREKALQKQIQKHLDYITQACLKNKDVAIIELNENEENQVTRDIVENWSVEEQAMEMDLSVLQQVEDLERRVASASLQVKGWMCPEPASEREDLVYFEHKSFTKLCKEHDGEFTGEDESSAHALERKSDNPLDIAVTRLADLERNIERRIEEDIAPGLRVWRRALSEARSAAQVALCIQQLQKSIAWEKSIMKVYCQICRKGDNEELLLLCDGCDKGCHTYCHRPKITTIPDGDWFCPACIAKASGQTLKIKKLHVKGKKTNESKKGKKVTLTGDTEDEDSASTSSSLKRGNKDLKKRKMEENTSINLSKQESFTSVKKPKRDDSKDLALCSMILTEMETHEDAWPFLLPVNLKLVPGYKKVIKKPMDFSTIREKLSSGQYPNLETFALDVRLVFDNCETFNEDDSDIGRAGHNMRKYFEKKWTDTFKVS
Method in brief: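 Compounds, titrated to a top concentration of 110 uM, were incubated 30 min at room temperature with preformed BAZ2B/acetyl-K14 H3 peptide complex (50 nM each). Proximity signal was measured by AlphaScreen after 20 min with beads.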
In the case of `CCOCCCn1c(-c2ccc(Cl)cc2)n[nH]c1=S`, the Potency is reported as “inactive”.
`COc1cccc(CNC(=O)C(Cc2ccccc2)NS(=O)(=O)c2ccc3c(c2)oc(=O)n3C)c1` (stereo unspecified) was tested, and the Potency was inconclusive: 89.1 µM [inhibitor, single point].
With `COc1ccc(CN(C)Cc2c(O)ccc3cc(Br)ccc23)cc1OC` the Potency was inconclusive: 89.1 µM [inhibitor, single point].
With `Cc1ccc(S(=O)(=O)Nc2cccc3cccnc23)c([N+](=O)[O-])c1` the Potency was active: 44.7 µM.
For `CCc1ccc(NC(=O)c2[nH]c(C)c(C(C)=O)c2C)cc1`, the Potency was inconclusive: 79.4 µM [inhibitor, single point].
With `CCC(C)Sc1cccc(-c2nc3ccc(C)cn3c2NC2CCCCC2)c1` (stereo unspecified) the Potency was inconclusive: 56.2 µM [inhibitor, partial curve].
For `CNS(=O)(=O)c1cccc2cccnc12`, the Potency was “inactive”.
With `O=S(=O)(c1ccccc1)N1CCN(c2nc(-c3cccnc3)nc3ccccc23)CC1` the Potency was active: 50.1 µM.
With `Cc1cc(C)c(C(=O)COC(=O)c2cc([N+](=O)[O-])ccc2N2CCOCC2)cc1C` the Potency was “inactive”.
For `CCN(C(=O)COc1cccc2cccnc12)C1CCS(=O)(=O)C1` (stereo unspecified), the Potency was active: 50.1 µM.
`C/C=C/c1ccc(OCCCCN2CCC(C)CC2)c(OC)c1` was tested, and the Potency was active: 35.5 µM.
`Cc1ccc(C2NCCS2)cc1` (stereo unspecified) was tested, and the Potency was “inactive”.
In the case of `CC(=O)N1c2ccc(S(=O)(=O)N(C)CC(=O)N(Cc3ccccc3)C(C)C)cc2CC1C` (stereo unspecified), the Potency is reported as inconclusive: 79.4 µM [inhibitor, single point].
`Cc1ccc(N2C(=O)CC(N(O)C3CC(=O)N(c4ccc(C)cc4)C3=O)C2=O)cc1` (stereo unspecified) was tested, and the Potency was “inactive”.
With `O=C1/C(=C/c2ccco2)SC(=S)N1CCC(=O)N1CCCCC1CCO` (stereo unspecified) the Potency was active: 50.1 µM.
For `O=C(Cc1ccccc1)Nc1nnc2n1CCS2`, the Potency was active: 79.4 µM.
In the case of `CCN(Cc1ccccc1)Cc1c(O)ccc2oc(C)c(C(=O)Nc3ccccc3C)c12`, the Potency is reported as “inactive”.
`Cc1cc2nc(N(Cc3cccnc3)C(=O)c3ccc(Cl)s3)sc2cc1C` was tested, and the Potency was “inactive”.
For `Cc1ccc(S(=O)(=O)NCC(c2ccc(N(C)C)cc2)N2CCc3ccccc32)cc1` (stereo unspecified), the Potency was active: 6.31 µM.
`CC(=O)c1ccc(NC(=O)CS(=O)(=O)c2cn(CC(=O)N3CCOCC3)c3ccccc23)cc1` was tested, and the Potency was “inactive”.
In the case of `COc1ccccc1CN1C(=O)C(=O)c2cccc(C)c21`, the Potency is reported as inconclusive: 2.82 µM [inhibitor, full curve, poor fit].
`CC1(C)CC(=O)C(C(c2ccco2)C2C(=O)CC(C)(C)CC2=O)C(=O)C1` was tested, and the Potency was “inactive”.
For `CC(=O)N(C)c1ccc(N=Nc2c(C)[nH]n(-c3ccccc3)c2=O)cc1`, the Potency was inconclusive: 44.7 µM [inhibitor, partial curve].
For `CC(C)c1nc(CNC(=O)c2ccc(OC3CCN(Cc4ccccn4)CC3)cc2)cs1`, the Potency was inconclusive: 79.4 µM [inhibitor, single point].
With `Cc1[nH]n(-c2ccccc2)c(=O)c1N=Nc1ccc(C(N)=O)cc1` the Potency was “inactive”.
For `Oc1cccc(/C=C/c2ccc3cccc(O)c3n2)c1`, the Potency was inconclusive: 70.8 µM [inhibitor, single point].
With `COc1ccc(CC(=O)Nc2cc(S(=O)(=O)N3CCOCC3)ccc2N2CCOCC2)cc1` the Potency was “inactive”.
With `CCn1cc(C(=O)OCC(=O)Nc2c(C)cccc2C)c(=O)c2ccc(C)nc21` the Potency was “inactive”.
For `Cc1ccc(S(=O)(=O)N2CCC(N3CCCCCC3)CC2)cc1`, the Potency was inconclusive: 89.1 µM [inhibitor, single point].
In the case of `COc1ccc(C(CCN2CCN(c3ccccc3)CC2)c2c(O)cc(OC)cc2OC)cc1` (stereo unspecified), the Potency is reported as active: 28.2 µM.
With `CC1CCCC/C1=N\NC(=S)Nc1ccccc1` (stereo unspecified) the Potency was inconclusive: 89.1 µM [inhibitor, single point].
In the case of `CC(C)CC1CCCCC1OC(=O)C[N+]1(C)CCCCC1` (stereo unspecified), the Potency is reported as “inactive”.
For `Cc1nc(SCc2ccc(O)c([N+](=O)[O-])c2)c([N+](=O)[O-])[nH]1`, the Potency was inconclusive: 79.4 µM [inhibitor, single point].
In the case of `CCOC(=O)c1c(C)[nH]c(C=Nc2ccccc2)c1O`, the Potency is reported as inconclusive: 79.4 µM [inhibitor, single point].
`COc1cc(OC)c([N+](=O)[O-])cc1/C=N/NC(=O)c1ccncc1` was tested, and the Potency was “inactive”.
For `COc1cc(C2C(C#N)=C(N)Oc3cc(C)oc(=O)c32)cc2c1OCO2` (stereo unspecified), the Potency was active: 56.2 µM.
With `Cc1ccccc1/C=N/N1CCN(c2ccccc2)CC1` the Potency was active: 20 µM.
`O=[N+]([O-])c1ccc(Cl)c(CN2CCN(c3ncccn3)CC2)c1` was tested, and the Potency was inconclusive: 89.1 µM [inhibitor, single point].
`O=C(CNC(=O)Cn1ccc2ccccc2c1=O)NCCCN1CCN(c2cccc(Cl)c2)CC1` was tested, and the Potency was inconclusive: 89.1 µM [inhibitor, single point].
In the case of `COc1cccc(/C=N/n2c(-c3cc(C)[nH]n3)n[nH]c2=S)c1`, the Potency is reported as “inactive”.
In the case of `CCN(CC)c1ccc(NC(=O)C2CC3CCC2C3)cc1` (stereo unspecified), the Potency is reported as “inactive”.
With `C=CCOC(=O)c1sc(NC(=O)c2ccc(OC)cc2)nc1C` the Potency was “inactive”.
In the case of `CCCOc1ccc(C2c3c(-c4ccccc4O)n[nH]c3C(=O)N2Cc2cccnc2)cc1` (stereo unspecified), the Potency is reported as inconclusive: 17.8 µM [inhibitor, full curve].
`Oc1ccc(-n2nnnc2SCc2c(F)cccc2Cl)cc1` was tested, and the Potency was inconclusive: 89.1 µM [inhibitor, single point].
With `COc1ccccc1NS(=O)(=O)c1cc(N)ccc1N1CCCCC1` the Potency was inconclusive: 44.7 µM [inhibitor, partial curve].
With `COc1ccc(/C=N/NC(=O)CN2CCSCC2)cc1C` the Potency was active: 50.1 µM.
`COc1ccccc1N1CCN(C2CCN(S(=O)(=O)c3ccc4ccccc4c3)CC2)CC1` was tested, and the Potency was inconclusive: 28.2 µM [inhibitor, full curve].
In the case of `COc1ccc(C(C)=O)cc1CSc1nnc(Nc2ccccc2C)s1`, the Potency is reported as “inactive”.
In the case of `CC(Oc1ccc2c3c(c(=O)oc2c1)CCCC3)C(=O)NCCCn1ccnc1` (stereo unspecified), the Potency is reported as inconclusive: 79.4 µM [inhibitor, partial curve].
In the case of `COC(=O)c1ccc(COc2ccccc2/C=C(\C#N)C(=O)Nc2c(C)cc(C)cc2C)cc1`, the Potency is reported as “inactive”.
For `CCOc1cc(C(=O)NCc2nc(-c3cccc(C)c3)no2)cc(OCC)c1OCC`, the Potency was “inactive”.
